# ChEMBL document CHEMBL4888484, “Replenishing the malaria drug discovery pipeline: Screening and hit evaluation of the MMV Hit Generation Library 1 (HGL1) against asexual blood stage Plasmodium falciparum ,using a nano luciferase reporter read-out” (2022)
# “And” between values parts separate entries of the source, which are not always exact repeats. Equal values may be shown once. Screen size: about 150,000 compounds; about 540 (0.36%) showed an effect of 50% or more. Some of the results follow.
# Tested on: Plasmodium falciparum
# Experiment: Primary screen in NF54 nanoGlo assay, in single point, at 2uM, 72h; a lower Z score goes with more inhibition
# Type: functional, Erythrocyte
# Details: timepoint 72 hour
compound,measurement,setting,value
Cc1csc(NC(=O)Cn2cnc(C(C)C)cc2=O)n1,% Inhibition,,0%
same,Z score,,-0.02
COC(=O)c1cccc(-c2noc(C3(C#N)CCCC3)n2)c1,% Inhibition,,5%
same,Z score,,-0.49
CCCCOc1ccc([C@@H]2CC(=O)Nc3cc(N4CCNC4=O)ccc32)cc1,% Inhibition,,-9%
same,Z score,,1.56
CN1CCC(Oc2ncc(Br)cn2)CC1,% Inhibition,,0%
same,Z score,,0
O=C(Nc1cnc2ccccc2c1)N1CCOCC1,% Inhibition,,8%
same,Z score,,-1.48
CCc1nn(C)c(Cl)c1CN1CC(c2ccccn2)C1,% Inhibition,,-12%
same,Z score,,1.25
Cc1cccc(CN2CCC(N3CCC[C@H](C(=O)NCc4ccccn4)C3)CC2)c1,% Inhibition,,-16%
same,Z score,,2.48
O=c1[nH][nH]c(=O)n1-c1ccc2c(c1)OCO2,% Inhibition,,-14%
same,Z score,,2.09
CC(=O)Nc1ccc(CN2CCC[C@H](n3cc(C)cn3)C2)cc1,% Inhibition,,-7%
same,Z score,,0.79
CC(C)C(=O)NCCNc1nc(C2CCCCC2)nc2c1cnn2-c1ccccc1Cl,% Inhibition,,-13%
same,Z score,,1.33
O=C(Nc1ccn(-c2ncccc2Cl)n1)c1ccc(Cl)cc1Cl,% Inhibition,,-11%
same,Z score,,1.11
CC(C)(C)c1nnc(C(=O)NC2C3CN(Cc4ccccc4)CC32)o1 (centres undefined),% Inhibition,,7%
same,Z score,,-0.92
CCC(=O)C1CCCN(C(=O)CC2(c3ccc(OC)cc3)CC(=O)N(C3CC3)C2=O)C1 (centres undefined),% Inhibition,,-12%
same,Z score,,2.03
COc1ccc(CCC(=O)Nc2ccc3nc(C4CC4)[nH]c3c2)cc1,% Inhibition,2 µM,-15% and 5%
COc1ccccc1-n1nc(CC(N)=O)nc1COC(C)C,% Inhibition,,-9%
same,Z score,,0.87
Cc1cc(C)n(-c2ccc(-c3nc(CN4CCOCC4)no3)cc2)n1,% Inhibition,,3%
same,Z score,,-0.63
CC(=O)N1CCn2c(nnc2[C@@H]2CCCN2S(=O)(=O)c2cc(F)ccc2F)C1,% Inhibition,,33%
same,Z score,,-0.36
Nc1nccc(N2CCC[C@H](CNC(=O)c3ccoc3)C2)n1,% Inhibition,,2%
same,Z score,,-0.39
CS(=O)(=O)CCCN1CC2CCCCC21c1ccccc1 (centres undefined),% Inhibition,,-8%
same,Z score,,0.95
CCOC1(C(=O)N2CCc3nc[nH]c(=O)c3C2)CCCC1,% Inhibition,,-5%
same,Z score,,0.55
O=C(NCCn1cnnn1)c1csc(C2CCCCC2)c1,% Inhibition,,-10%
same,Z score,,1.19
O=C1CC[C@H](C(=O)Nc2ncc(-c3cccc(Cl)c3)s2)N1,% Inhibition,,-9%
same,Z score,,1.25
O=C1CN(C(=O)c2[nH]nc(C3CC3)c2Br)CCN1,% Inhibition,,-6%
same,Z score,,0.75
COc1ccc(C)c(S(=O)(=O)N[C@@H](C)c2nccs2)c1,% Inhibition,,0%
same,Z score,,0.04
Cc1cc(C)c(O)c(C(=O)N2CCN(C(=O)c3cc(C)no3)CC2)c1,% Inhibition,,-5%
same,Z score,,0.77
CC(C)n1nnnc1-c1ccccc1NC(=O)N[C@H]1CCCC[C@@H]1O,% Inhibition,,-12%
same,Z score,,1.47
COc1ccc(N[C@@H](C)Cc2cnn(C)c2)cn1,% Inhibition,,-9%
same,Z score,,0.79
COc1ccc(CNC(=O)N2CCCN(C3CCC3)CC2)cc1OC,% Inhibition,,-8%
same,Z score,,1.39
Cc1nc(-c2ccc(N3CCN(C(=O)c4cccc(F)c4)CC3)nc2)sc1C,% Inhibition,,-9%
same,Z score,,1.56
COc1ccc(COC(=O)c2ncoc2C(C)C)cn1,% Inhibition,,-3%
same,Z score,,0.59
CCc1nnc(CN(C)c2nc(C)nc3sccc23)o1,% Inhibition,,-1%
same,Z score,,0.19
O=S(=O)(c1ccc2c(c1)CCCC2)N1CCN(c2cnccn2)CC1,% Inhibition,,-1%
same,Z score,,0.13
COc1cc(Cl)cc(CN(C)CCC[C@H]2CCCO2)c1OC,% Inhibition,,-2%
same,Z score,,0.31
C#CCCCS(=O)(=O)Nc1c(-c2cccc(F)c2)n[nH]c1C1CC1,% Inhibition,,2%
same,Z score,,-0.28
COC(C)(C)CC(=O)Nc1c(C)n[nH]c1C,% Inhibition,,-4%
same,Z score,,0.31
O=C1N(Cc2cccc(F)c2F)CCC[C@@]1(O)CNC1CCCCCC1,% Inhibition,,-18%
same,Z score,,2.62
Cc1ccc(NC(=O)CN2CC3CCCCN3CC2C)cc1 (centres undefined),% Inhibition,,-2%
same,Z score,,0.18
Cc1ccc(CNC(=O)c2noc(C)c2Cn2nc(C)cc2C)cc1,% Inhibition,,6%
same,Z score,,-0.98
Clc1cnccc1-c1csc(-c2ccoc2)n1,% Inhibition,,-16%
same,Z score,,1.33
Cc1nn(C)c(C)c1C(=O)Oc1cccc(-n2ccnn2)c1,% Inhibition,,-22%
same,Z score,,2.5
O=C(CC[C@H]1CCCN(C(=O)c2cccc(Cl)c2F)C1)N1CCCC1,% Inhibition,,-13%
same,Z score,,1.93
CC(C)N1CCc2c(C#N)c(NCCCN3CCOCC3)n3cnnc3c2C1,% Inhibition,,-13%
same,Z score,,1.39
COc1ccc(Cc2c(C)nc(C)nc2N2CCN(C(=O)C3CCCC3)CC2)cc1,% Inhibition,,-11%
same,Z score,,1.36
C[C@@H](CN(C)C(=O)c1conc1C(C)(C)N)c1ccccc1,% Inhibition,,9%
same,Z score,,-1.11
CCCc1cnc(C)nc1-c1cccc(C(=O)NCCN2CCCC2)c1,% Inhibition,,-1%
same,Z score,,0.23
COc1cccc(-n2c(=O)c(C(=O)NC3CCCC3)c(O)c3cccnc32)c1,% Inhibition,,-12%
same,Z score,,1.59
COc1cccc(-c2ccc(=O)n(CCC(=O)N3CCN(Cc4ccc5c(c4)OCO5)CC3)n2)c1,% Inhibition,,31%
same,Z score,,-0.15
Cn1cnc2c1CCN(C[C@H](O)c1ccc(F)cc1)C2,% Inhibition,,-6%
same,Z score,,0.87
CC(C)(CNCC(C)(C)c1ccccc1)NS(C)(=O)=O,% Inhibition,,2%
same,Z score,,-0.29
Cc1ncsc1CN[C@@H](C)C1=CCCCC1,% Inhibition,,-12%
same,Z score,,2.37
CCn1nc(C)c(CCN(C)C(=O)Nc2cccc(Cl)c2C)c1C,% Inhibition,,-7%
same,Z score,,1.3
C[C@H](O)CC(C)(C)CNC(=O)NCc1coc2ccccc12,% Inhibition,,-5%
same,Z score,,0.55
[2H]C1=C(C([2H])([2H])[2H])N(CC)C(=O)N[C@@H]1c1cc(Cl)ccc1O,% Inhibition,,-6%
same,Z score,,0.69
Cc1cc2c(cc1S(=O)(=O)N1CCC(C(=O)Nc3ccc(C(C)C)cc3)CC1)OCC(=O)N2,% Inhibition,,-8%
same,Z score,,0.97
CCCn1nc(C2CC2)nc1-c1c[nH]c2ccccc12,% Inhibition,,-12%
same,Z score,,2.47
